Assay results from the supplement of paper PMC9046079.
Counter-ions that a name gives are not always drawn. ± gives the standard deviation of the averaged measurements. This is one part of the list.

Assays:
[1] = system: murine small intestinal organoids (ENR+CD Paneth differentiation); experiment: cellular ATP (CellTiter-Glo 3D) relative to plate median (log10 fold change); higher = more viable cells; details: 6 d
[2] = system: murine small intestinal organoids (ENR+CD Paneth differentiation); experiment: carbachol-stimulated secreted lysozyme activity relative to plate median (log10 fold change); higher = more Paneth cell lysozyme secretion; details: 6 d, carbachol 10 µM
[3] = system: murine small intestinal organoids (ENR+CD Paneth differentiation); experiment: basal (non-stimulated) secreted lysozyme activity relative to plate median (log10 fold change); higher = more Paneth cell lysozyme secretion; details: 6 d
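Throughout, for basal (non-stimulated) secreted lysozyme activity relative to plate median: ISC-enriched organoid precursors grown as 2.5D pseudo-monolayer on Matrigel, compound given on day 0 and day 3, plate values LOESS-normalized before median fold change, three murine donors.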
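Throughout, for cellular ATP (CellTiter-Glo 3D) relative to plate median: 2.5D pseudo-monolayer culture of ISC-enriched organoids partly embedded atop Matrigel, compound added on day 0 and again on day 3, per-plate LOESS correction before median fold change.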

| SMILES | cellular ATP (log10) ([1]; 0.08 µM) | cellular ATP (log10) ([1]; 0.4 µM) | cellular ATP (log10) ([1]; 2 µM) | cellular ATP (log10) ([1]; 10 µM) | carbachol-stimulated secreted lysozyme activity (log10) ([2]; 0.08 µM) | carbachol-stimulated secreted lysozyme activity (log10) ([2]; 0.4 µM) | carbachol-stimulated secreted lysozyme activity (log10) ([2]; 2 µM) | carbachol-stimulated secreted lysozyme activity (log10) ([2]; 10 µM) | basal (log10) ([3]; 0.08 µM) | basal (log10) ([3]; 0.4 µM) | basal (log10) ([3]; 2 µM) | basal (log10) ([3]; 10 µM) |
| --- | --- | --- | --- | --- | --- | --- | --- | --- | --- | --- | --- | --- |
| Cc1c(-c2ccc(O)cc2)n(Cc2ccc(OCCN3CCCCCC3)cc2)c2ccc(O)cc12 [Bazedoxifene HCl] | 0.422 ± 0.066 | 0.365 ± 0.044 | -0.78 ± 0.82 | -1.15 ± 0.61 | 0.0789 ± 0.023 | 0.124 ± 0.03 | -0.194 ± 0.016 | -0.415 ± 0.047 | 0.159 ± 0.23 | 0.0263 ± 0.059 | -0.146 ± 0.02 | -0.28 ± 0.13 |
| CS(=O)(=O)c1ccc(-c2cnc(N)c(C(=O)Nc3ccccc3)n2)cc1 | 0.061 ± 0.59 | 0.119 ± 0.17 | -0.0831 ± 0.24 | -1.02 ± 0.084 | -0.201 ± 0.44 | 0.197 ± 0.11 | 0.0372 ± 0.028 | -0.464 ± 0.07 | -0.0105 ± 0.29 | 0.0737 ± 0.018 | 0.115 ± 0.15 | -0.275 ± 0.081 |
| Cc1c(Cc2ccc3ccccc3n2)c2cc(F)ccc2n1CC(=O)O | 0.077 ± 0.14 | -0.0647 ± 0.2 | 0.0878 ± 0.2 | 0.0885 ± 0.12 | 0.0416 ± 0.015 | 0.215 ± 0.21 | 0.136 ± 0.067 | 0.0606 ± 0.098 | 0.0477 ± 0.045 | 0.0529 ± 0.038 | 0.0583 ± 0.023 | 0.033 ± 0.053 |
| CCc1c2c(nc3ccc(O)cc13)-c1cc3c(c(=O)n1C2)COC(=O)[C@]3(O)CC | -0.953 ± 0.44 | -0.778 ± 0.82 | -0.89 ± 0.91 | -1.17 ± 0.24 | -0.533 ± 0.046 | -0.226 ± 0.5 | -0.396 ± 0.24 | -0.395 ± 0.25 | -0.305 ± 0.16 | -0.126 ± 0.28 | -0.233 ± 0.15 | -0.257 ± 0.17 |
| COc1cccc2c1C(=O)c1c(O)c3c(c(O)c1C2=O)C[C@@](O)(C(C)=O)C[C@@H]3O[C@H]1C[C@H](N)[C@H](O)[C@H](C)O1 [Daunorubicin HCl] | -0.467 ± 0.53 | -0.601 ± 0.024 | -0.817 ± 0.6 | -1.1 ± 0.94 | -0.0974 ± 0.51 | -0.474 ± 0.13 | -0.475 ± 0.12 | -0.49 ± 0.095 | -0.136 ± 0.2 | -0.241 ± 0.16 | -0.262 ± 0.18 | -0.26 ± 0.19 |
| CCn1c(=O)c2c(nc(/C=C/c3ccc(OC)c(OC)c3)n2C)n(CC)c1=O [Istradefylline] | -0.045 ± 0.24 | 0.0661 ± 0.1 | -0.157 ± 0.22 | -0.0379 ± 0.19 | 0.0379 ± 0.091 | -0.094 ± 0.019 | -0.0607 ± 0.08 | -0.0168 ± 0.14 | -0.015 ± 0.12 | -0.0349 ± 0.01 | -0.00254 ± 0.15 | -0.0406 ± 0.059 |
| CCCN[C@H]1CCc2nc(N)sc2C1 [Pramipexole] | 0.115 ± 0.17 | 0.135 ± 0.21 | 0.0673 ± 0.11 | 0.194 ± 0.23 | -0.00162 ± 0.012 | 0.147 ± 0.23 | 0.157 ± 0.24 | 0.074 ± 0.03 | 0.0357 ± 0.11 | 0.0407 ± 0.028 | 0.0106 ± 0.067 | 0.116 ± 0.13 |
| NC(=O)Nc1sc(-c2ccc(F)cc2)cc1C(N)=O | -0.228 ± 0.24 | 0.0524 ± 0.24 | 0.0254 ± 0.12 | -0.316 ± 0.42 | -0.178 ± 0.23 | -0.0249 ± 0.067 | 0.00649 ± 0.099 | -0.146 ± 0.3 | -0.101 ± 0.21 | -0.00768 ± 0.097 | -0.0475 ± 0.0029 | -0.0723 ± 0.11 |
| Cc1cc2c(cc1CC(=O)c1sccc1S(=O)(=O)Nc1onc(C)c1Cl)OCO2 [Sitaxentan sodium] | 0.112 ± 0.076 | -0.129 ± 0.45 | -0.05 ± 0.3 | -0.103 ± 0.27 | -0.0262 ± 0.09 | 0.0701 ± 0.043 | 0.11 ± 0.057 | 0.0501 ± 0.048 | -0.0103 ± 0.045 | -0.0256 ± 0.058 | 0.258 ± 0.31 | 0.0143 ± 0.086 |
| CC(C)C[C@@H](C(=O)N[C@H](C(=O)OC1CCCC1)c1ccccc1)[C@H](O)C(=O)NO [Tosedostat (CHR2797)] | -0.139 ± 0.15 | 0.0608 ± 0.079 | -0.165 ± 0.19 | -0.384 ± 0.35 | -0.222 ± 0.033 | -0.101 ± 0.14 | -0.144 ± 0.12 | -0.238 ± 0.25 | -0.0589 ± 0.17 | 0.000743 ± 0.17 | -0.0582 ± 0.072 | -0.136 ± 0.11 |
| C[C@H](NCc1ccc(OCc2cccc(F)c2)cc1)C(N)=O [Safinamide Mesylate] | 0.355 ± 0.17 | 0.26 ± 0.18 | 0.282 ± 0.2 | 0.289 ± 0.27 | 0.284 ± 0.31 | 0.125 ± 0.091 | 0.182 ± 0.2 | 0.0972 ± 0.13 | 0.125 ± 0.11 | 0.0896 ± 0.022 | 0.286 ± 0.14 | 0.104 ± 0.037 |
| COC1CCN(C(=O)c2cc(Cc3n[nH]c(=O)c4ccccc34)ccc2F)CC1 | 0.0728 ± 0.15 | -0.0398 ± 0.38 | -0.232 ± 0.15 | -0.336 ± 0.12 | 0.115 ± 0.19 | -0.0446 ± 0.27 | -0.129 ± 0.14 | -0.254 ± 0.21 | 0.0384 ± 0.11 | -0.0375 ± 0.1 | -0.0736 ± 0.078 | -0.172 ± 0.084 |
| O=C(Oc1cc(S(=O)(=O)c2ccccc2)ccc1[N+](=O)[O-])c1ccc(Cl)cc1 | 0.275 ± 0.29 | 0.288 ± 0.16 | -0.18 ± 0.67 | 0.199 ± 0.12 | 0.302 ± 0.098 | 0.0961 ± 0.18 | 0.0998 ± 0.12 | 0.0749 ± 0.12 | 0.0913 ± 0.073 | 0.0246 ± 0.094 | 0.0237 ± 0.11 | -0.0308 ± 0.082 |
| C[C@@H](Oc1cc(-n2cnc3ccc(CN4CCN(C)CC4)cc32)sc1C(N)=O)c1ccccc1C(F)(F)F | 0.16 ± 0.092 | -0.154 ± 0.041 | -0.628 ± 0.19 | -0.621 ± 0.11 | 0.084 ± 0.061 | -0.105 ± 0.1 | -0.427 ± 0.029 | -0.477 ± 0.024 | 0.0784 ± 0.083 | -0.0958 ± 0.051 | -0.246 ± 0.094 | -0.287 ± 0.065 |
| O=S(=O)(c1ccccc1)c1cnc2c(N3CCNCC3)cccc2c1 | -0.348 ± 0.18 | -0.199 ± 0.17 | -0.367 ± 0.34 | -0.411 ± 0.27 | -0.00905 ± 0.05 | -0.132 ± 0.28 | -0.148 ± 0.26 | -0.226 ± 0.23 | -0.00336 ± 0.12 | -0.0874 ± 0.13 | -0.0129 ± 0.23 | -0.0726 ± 0.2 |
| O=C(NNc1nc2cc(F)ccc2n2cccc12)c1cnccn1 | -0.0309 ± 0.29 | 0.277 ± 0.35 | -0.317 ± 0.18 | -0.748 ± 0.83 | 0.104 ± 0.082 | -0.000248 ± 0.07 | -0.148 ± 0.11 | -0.314 ± 0.24 | 0.0387 ± 0.048 | -0.00798 ± 0.054 | -0.0487 ± 0.097 | -0.184 ± 0.15 |
| CN1CCC(CNc2ccc3ncc(-c4cccc(OC(F)(F)F)c4)n3n2)CC1 [SGI-1776 free base] | -0.396 ± 1.1 | 0.0712 ± 0.37 | 0.132 ± 0.15 | -0.477 ± 0.43 | -0.166 ± 0.42 | 0.017 ± 0.041 | 0.0974 ± 0.048 | -0.164 ± 0.19 | 0.000245 ± 0.18 | 0.0418 ± 0.096 | 0.0541 ± 0.013 | -0.138 ± 0.12 |
| C[C@@H]1C(=O)O[C@H]2C[C@@]34[C@H]5C[C@@H](C(C)(C)C)[C@]36[C@@H](OC(=O)[C@@H]6O)O[C@@]4(C(=O)O5)[C@]21O [Ginkgolide A] | 0.00475 ± 0.23 | -0.0168 ± 0.28 | 0.0398 ± 0.14 | -0.0119 ± 0.086 | 0.193 ± 0.27 | 0.253 ± 0.013 | 0.0234 ± 0.055 | -0.029 ± 0.018 | 0.0454 ± 0.022 | 0.0255 ± 0.086 | 0.0296 ± 0.07 | 0.0517 ± 0.19 |
